Laboratory results published in patent US20040126856A1 (published 2004).

How the values were obtained:
[1] = target: T1, A2 subunit of factor VIIIa (human, UniProt P00451 392-759); assay: apparent KdA2 against that of WT
T1 construct: also called isolated A2 subunit
T1 sequence: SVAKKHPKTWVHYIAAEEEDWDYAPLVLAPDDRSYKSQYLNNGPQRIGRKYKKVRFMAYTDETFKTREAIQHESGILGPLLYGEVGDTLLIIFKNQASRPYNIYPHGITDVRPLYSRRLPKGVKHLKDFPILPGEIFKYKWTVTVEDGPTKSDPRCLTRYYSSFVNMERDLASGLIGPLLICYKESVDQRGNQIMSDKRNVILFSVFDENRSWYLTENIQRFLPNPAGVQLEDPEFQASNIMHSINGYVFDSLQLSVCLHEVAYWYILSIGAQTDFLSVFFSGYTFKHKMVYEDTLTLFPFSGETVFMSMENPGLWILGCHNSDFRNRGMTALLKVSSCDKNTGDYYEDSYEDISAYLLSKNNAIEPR

[2] = target: T1, A2 subunit of factor VIIIa; assay: calculated from apparent KdA2 (RT ln Kd, 298 K)

fold-change in apparent Kd (mutant/WT) [1]: 18 fold | Gibbs free energy (delta G° A2) [2]: 7.82 kcal/mol
B1: dEGR-IXaR333Q (factor IXaR333Q inactivated with dansyl-Glu-Gly-Arg-chloromethyl ketone) (enzyme)
light: YNSGKLEEFVQGNLERECMEEKCSFEEAREVFENTERTTEFWKQYVDGDQCESNPCLNGGSCKDDINSYECWCPFGFEGKNCELDVTCNIKNGRCEQFCKNSADNKVVCSCTEGYRLAENQKSCEPAVPFPCGRVSVSQTSKLT
heavy: [omitted - about 250 residues with changes]
modifications: active site inactivated with dansyl-Glu-Gly-Arg-chloromethyl ketone (dEGR-ck); gamma-carboxyglutamic acid residues in the Gla domain (normal Gla content)
